Assay results reported in PubChem BioAssay AID2546 (National Center for Advancing Translational Sciences (NCATS), 2010).
In all, about 310,000 compounds went through this assay and about 11,000 (3.5%) were called active. Inconclusive means that the source gave no clear call. Such entries were picked first, then a sample of the others. Calls come from the whole dose curve; as a rule, active = well fitted inhibition curve with a large enough effect; inconclusive = small, poorly fitted or top-dose-only effect, or effect the other way; inactive = flat fitted curve, though single readings scatter. No potency is given beside an inconclusive call; the fits are too rough.
% is set by controls: 0 for no effect and ±100 for the full control effect; potency is the fitted concentration of half-maximal effect; tags give direction and shape of the fitted curve.

Test: VP16 counterscreen qHTS for inhibitors of ROR gamma transcriptional activity;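 note: Gal4-VP16 expression switched on by copper sulfate through the metallothionein promoter; nearly all actives have a fitted effect of over 50% in size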
Settings: Drosophila S2 Gal4-VP16 UAS-luciferase, luminescence, 20 h; activity, negative = inhibition: at 53.6 µM (top of the series)
With `COc1ccc2nc(/C=N/NC(=O)CCNC(=O)OC(C)(C)C)ccc2c1` the “activity, negative = inhibition” value was inactive: -5.02%.
For `O=C(CC1C(=O)NCCN1Cc1ccc(-c2ccccc2)cc1)NCc1ccccc1` (stereo unspecified), the Potency was inconclusive [inhibitor, single point].
For `CC(=O)Nc1ccc(SCC(=O)c2c(N)n(Cc3ccccc3)c(=O)n(C)c2=O)cc1`, the “activity, negative = inhibition” value was inactive: 3.98%.
With `CCOc1ccc(-c2n[nH]c(=S)o2)cc1` the Potency was inconclusive [inhibitor, single point].
With `COCCN(C(=O)CCl)C(C(=O)NC1CCCCC1)c1ccccc1C` (stereo unspecified) the Potency was inconclusive [inhibitor, single point].
For `O=C(N/N=C/c1cc(Br)ccc1O)C(c1ccncc1)N1CCOCC1` (stereo unspecified), the Potency was active: 15.8 µM.
With `CCCCC1=CC2=C(c3ccco3)C(=O)C(C)(OC(=O)c3ccc(OC)cc3)C(=O)C2=CN1Cc1ccc(OC)cc1` (stereo unspecified) the Potency was inconclusive [inhibitor, single point].
In the case of `COc1cccc(-c2nc(NC(C)C)c3ccccc3n2)c1O`, the Potency is reported as inconclusive [inhibitor, single point].
In the case of `COc1cccc(C(=O)Nc2ccc(-c3nc4ccccc4o3)c(O)c2)c1`, the Potency is reported as active: 7.08 µM.
For `COc1ccc(C(=O)NC(=O)N2CCCCC2)cc1`, the “activity, negative = inhibition” value was inactive: 1.48%.
For `CCOc1cccc(C(=O)Nc2ccc3ccccc3c2)c1`, the Potency was inconclusive [inhibitor, single point].
With `C#CCCCCCCCCCCCC(O)CC(O)CO` (stereo unspecified) the Potency was inconclusive [inhibitor, single point].
For `Cc1ccccc1C1N(c2nccs2)C(=O)C2CCCN21` (stereo unspecified), the Potency was inconclusive [inhibitor, single point].
With `Cc1ccc(N(C(=O)c2ccccc2Cl)C2=NC(C)CS2)c(C)c1` (stereo unspecified) the “activity, negative = inhibition” value was inactive: 9.1%.
With `CC1=NN(C(N)=S)C(=O)C1N=Nc1c(Cl)cc([N+](=O)[O-])cc1Cl` (stereo unspecified) the Potency was active: 1.58 µM.
In the case of `CCOc1ccccc1NC(=O)C1C2CCC(O2)C1C(=O)O` (stereo unspecified), the “activity, negative = inhibition” value is reported as inactive: -2.95%.
For `Clc1cccc(Cl)c1Cn1ccc(C2CC2)n1`, the Potency was inconclusive [activator, single point].
In the case of `CCc1ccc(C2C(C#N)=C(N)C(C#N)(C#N)C3=CCC(C(C)(C)C)CC32)cc1` (stereo unspecified), the Potency is reported as inconclusive [inhibitor, single point].
For `Fc1cccc2sc(N3CCCCC3)nc12`, the Potency was inconclusive [activator, full curve].
With `O=C(CCl)Nc1cc2[nH]c(=O)[nH]c2cc1Br` the Potency was inconclusive [inhibitor, single point].
In the case of `CC(=O)Nc1ccc(NC(=S)NC(=O)C2CCCC2)cc1`, the “activity, negative = inhibition” value is reported as inactive: 0.064%.
With `CC(=O)N1CCCC(C(=O)c2ccc(Oc3ccccc3)cc2)C1` (stereo unspecified) the Potency was inconclusive [inhibitor, partial curve, poor fit].
In the case of `Cc1c(OCC(=O)N[C@@H](Cc2c[nH]c3ccccc23)C(=O)O)ccc2c1oc(=O)c1ccccc12`, the “activity, negative = inhibition” value is reported as inactive: 0.521%.
With `Cc1ccc(C(=O)Nc2nc(=O)n(C)s2)cc1` the Potency was active: 11.2 µM.
With `CCc1ccc(NC(=O)Cn2c(=O)oc3cc(S(=O)(=O)N4CCOCC4)ccc32)cc1` the Potency was inconclusive [inhibitor, single point].
In the case of `CCn1c(CCNC(=O)c2ccc(F)cc2)nc2ccccc21`, the Potency is reported as inconclusive [inhibitor, full curve, poor fit].
With `CCC(C)C(NC(=O)CCC(=O)OCC(=O)[C@@]1(O)CCC2[C@@H]3CCC4=CC(=O)C=C[C@]4(C)C3[C@@H](O)C[C@@]21C)C(=O)O` (stereo partly specified) the “activity, negative = inhibition” value was inactive: 10.1%.
In the case of `O=C(CO/N=C/c1ccc(Cl)cc1Cl)NNC(=O)c1ccc(Cl)cc1Cl`, the Potency is reported as inconclusive [inhibitor, partial curve].
With `O=C(c1nn2c(C(F)(F)F)cc(-c3ccco3)nc2c1Br)N1CCCc2ccccc21` the “activity, negative = inhibition” value was inactive: -8.44%.
With `COc1ccc2oc(=O)c(-c3csc(Nc4ccc(O)cc4)n3)cc2c1` the Potency was inconclusive [inhibitor, single point].
For `O=C(c1ccco1)N1CCN(C(c2cccs2)c2nnnn2C2CCCC2)CC1` (stereo unspecified), the “activity, negative = inhibition” value was inactive: 6.38%.
In the case of `CCN(Cc1ccccc1)c1ccc(/C=N/NC(=O)c2cccc(S(=O)(=O)N3CCOCC3)c2)cc1`, the Potency is reported as active: 7.94 µM.
For `CCN(c1ccccc1)S(=O)(=O)c1ccc(F)cc1`, the “activity, negative = inhibition” value was inactive: -4.6%.
With `CCOC(=O)c1ccc(NC(=S)Nc2ccc(C)cc2)cc1` the Potency was inconclusive [inhibitor, single point].
With `COC(=O)C1(CC(C)C)C=C2C(=C(C(C)C)C(=O)C2C)CN1` (stereo unspecified) the Potency was inconclusive [activator, single point].
In the case of `Cn1c(Cn2nnc3ccccc32)nnc1SCC(=O)c1ccccc1F`, the Potency is reported as active: 7.08 µM.
With `N#C/C(=C1\C(=O)Nc2c(Cl)cc(Cl)cc21)c1nnc2n1CCCCC2` the Potency was inconclusive [inhibitor, single point].
With `O=C(O)Cn1c(=O)c(-c2ccccc2)nc2ccccc21` the “activity, negative = inhibition” value was inactive: 5.67%.
With `COc1ccc(CNC(=O)c2csc(Cc3ccccc3)n2)cc1` the Potency was inconclusive [activator, partial curve, poor fit].
For `CC(C)OCCCNC(=S)NNC(=O)c1ccc(Cl)c(Cl)c1`, the Potency was inconclusive [inhibitor, single point].
In the case of `CC(C)N1C(=O)S/C(=C/c2ccc(Sc3nc4ccccc4[nH]3)o2)C1=O`, the Potency is reported as inconclusive [inhibitor, single point].
For `COc1ccc(C2CC(=O)c3cnn(-c4nc(C)cc(C)n4)c3C2)cc1OC` (stereo unspecified), the “activity, negative = inhibition” value was inactive: -1.71%.
For `Cc1ccc(CNc2nc(-c3cccnc3)nc3ccccc23)cc1`, the Potency was inconclusive [inhibitor, single point].
For `COc1cnn(-c2ccc(Br)cc2)c(=O)c1SCc1ccccc1`, the Potency was inconclusive [inhibitor, single point].
In the case of `O=C(Nc1ncnc2sc3c(c12)CCCCC3)c1ccco1`, the Potency is reported as inconclusive [inhibitor, single point].
For `c1ccc2c(CSCCc3ccncc3)cccc2c1`, the Potency was inconclusive [inhibitor, single point].
For `CCCNC(=O)c1cc(S(=O)(=O)N2CCc3ccccc32)ccc1F`, the Potency was inconclusive [inhibitor, single point].
For `CC(C)CN(CCNC(=O)CN1C(=O)CSc2ccc(S(=O)(=O)N3CCOCC3)cc21)CC(C)C`, the “activity, negative = inhibition” value was inactive: 9.36%.
For `NC1=NN=C(N2N=C(c3ccc(Br)cc3)CC2(O)C(F)(F)F)n2ncnc2C1` (stereo unspecified), the Potency was active: 17.8 µM.
For `CCn1c(SCc2cccc(C(=O)O)c2)nnc1-c1ccc(Cl)cc1`, the Potency was inconclusive [inhibitor, partial curve].
With `CCOC(=O)C1CCN(C(=O)C2(NC(=O)Nc3ccccc3Cl)CCCCC2)CC1` the Potency was inconclusive [inhibitor, single point].
For `Cc1ccc(NC(=S)NC(=O)c2c(-c3ccccc3Cl)noc2C)cc1`, the Potency was active: 11.2 µM.
In the case of `CN(C)c1ccc(/C=C(\C#N)C(=O)NCc2ccco2)cc1`, the Potency is reported as inconclusive [inhibitor, single point].
In the case of `COc1ccc(C)cc1-n1nnnc1SCc1cc(=O)n2cc(C)ccc2n1`, the “activity, negative = inhibition” value is reported as inactive: -5.75%.
In the case of `Cc1ccc(Cl)cc1S(=O)(=O)N1CCC(C(=O)NC2CCN(Cc3ccccc3)CC2)CC1`, the Potency is reported as active: 22.4 µM.
In the case of `CCc1nnc(NC(=O)CSc2nc(-c3ccccc3)c(-c3ccccc3)o2)s1`, the Potency is reported as inconclusive [inhibitor, single point].
For `Cc1ccccc1OCc1nc(-c2ccc(NC(=O)c3ccc4c(c3)OCO4)cc2)no1`, the Potency was inconclusive [inhibitor, single point].
For `CCc1cc2c3c(c1)C1(C(=O)N3C(C)(C)C=C2C)C(C#N)=C(N)Oc2[nH]c(=O)[nH]c(=O)c21` (stereo unspecified), the Potency was inconclusive [inhibitor, single point].
In the case of `Cn1c(CC(=O)Nc2ccc(F)cc2)c(Sc2ccccc2)c2ccccc21`, the “activity, negative = inhibition” value is reported as inactive: -21.1%.
In the case of `Cc1ccc(NC(=S)NC2CCN(Cc3ccccc3)CC2)c(C)c1`, the Potency is reported as inconclusive [inhibitor, single point].
With `O=C(Nc1nc2ccccc2[nH]1)c1ccc(S(=O)(=O)N2CCOCC2)cc1` the Potency was inconclusive [inhibitor, single point].
With `O=C(NNC1=NCCC1)c1cccc(S(=O)(=O)N2CCCCC2)c1` the Potency was active: 10 µM.
In the case of `CC(=O)OC1CCC2C3CCc4cc(O)ccc4C3CCC12C` (stereo unspecified), the Potency is reported as inconclusive [inhibitor, partial curve].
With `CC1=C(CC(=O)c2ccccc2)C(=O)c2ccccc2C1=O` the Potency was inconclusive [inhibitor, single point].
With `Cc1ccccc1NC(=S)Nc1ccccn1` the Potency was active: 1.58 µM.
In the case of `CC1(C)CC(=O)C2=C(C1)OC(N)=C(C#N)C2c1ccc[nH]1` (stereo unspecified), the Potency is reported as inconclusive [inhibitor, partial curve].
With `CC1=CC(=NOC(=O)c2cccc([N+](=O)[O-])c2)C=C(C)C1=O` the Potency was inconclusive [inhibitor, single point].
In the case of `O=C(/C=C/c1ccc(F)cc1)NC(=S)N1CCCCC1c1cccnc1` (stereo unspecified), the Potency is reported as inconclusive [inhibitor, single point].
With `Nc1c(C(=O)Nc2ccccc2)c2nc3ccccc3nc2n1-c1ccc(O)cc1` the Potency was inconclusive [inhibitor, single point].
In the case of `O=C(O)Cc1ccc(NC(=O)C2CC=CCC2C(=O)O)cc1` (stereo unspecified), the “activity, negative = inhibition” value is reported as inactive: -1.98%.
For `CS(=O)(=O)N(CCc1ccccc1)CC(=O)N1CCN(Cc2ccc3c(c2)OCO3)CC1`, the Potency was inconclusive [inhibitor, single point].
